Results published in PubChem BioAssay (Tox21).
Several values for one entry are separate records, joined by “and”; a condition that tells them apart may be missing. Equal entries are not always repeated. The shares of active, inactive and inconclusive entries below differ from those in the screen. Potencies of inconclusive entries are doubtful fits and often do not repeat. Where a structure was tested more than once in an assay, its records may differ in their call. Activity calls are given as the source filed them. Calls come from the whole dose curve; as a rule, active = well fitted inhibition curve with a large enough effect in the repeat runs; inconclusive = weak or mixed curves; inactive = no such curve, though single readings can be large or run the other way.

biological target: Cytochrome P450 1A2 (Homo sapiens) (UniProt P05177); experiment: Cytochrome P450 Family 1 Subfamily A Member 2 (CYP1A2) small molecule antagonists: luciferase reporter qHTS assay (AID 1671199); details: P450-Glo CYP1A2 enzyme, luciferin luminescence, 1 h; series mostly up to 115 µM; activity change, negative = inhibition: at the top concentration; note: nearly all actives have a fitted effect of over 50% in size
Sequence of UniProt P05177 (P05177 whole entry, looked up): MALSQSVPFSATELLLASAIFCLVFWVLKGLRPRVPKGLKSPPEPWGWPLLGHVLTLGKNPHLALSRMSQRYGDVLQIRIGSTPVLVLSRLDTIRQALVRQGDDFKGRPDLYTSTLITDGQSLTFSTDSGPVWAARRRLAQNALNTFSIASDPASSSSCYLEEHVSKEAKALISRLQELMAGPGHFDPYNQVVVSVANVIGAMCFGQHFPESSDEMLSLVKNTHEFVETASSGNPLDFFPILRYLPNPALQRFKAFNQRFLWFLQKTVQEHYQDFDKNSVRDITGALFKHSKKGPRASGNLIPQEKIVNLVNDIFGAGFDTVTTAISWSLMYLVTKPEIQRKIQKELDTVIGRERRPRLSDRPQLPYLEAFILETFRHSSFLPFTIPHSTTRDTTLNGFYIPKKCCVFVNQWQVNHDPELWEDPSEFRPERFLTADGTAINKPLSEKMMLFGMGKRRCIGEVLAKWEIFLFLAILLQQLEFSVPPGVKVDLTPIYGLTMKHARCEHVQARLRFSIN
In short: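 Steps: enzyme-substrate mix dispensed; test compounds and furafylline control pinned in; 10 min room temperature; NADPH regeneration solution added, 1 h; reaction stopped with luciferin detection reagent; luminescence read after 20 min.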
% is set by controls: 0 for no effect and ±100 for the full control effect; potency is the fitted concentration of half-maximal effect; tags give direction and shape of the fitted curve.

Row | SMILES | Potency | activity change, negative = inhibition
1 | O=c1[nH]c2ccccc2n1C1CCN(CCCC(c2ccc(F)cc2)c2ccc(F)cc2)CC1 | inconclusive: 31.7 µM [inhibitor, partial curve, poor fit] | –
2 | Cc1cccc(Cc2cnc[nH]2)c1C | active: 0.911 µM | –
3 | CC(C)(c1ccccc1)c1cc(-n2nc3ccccc3n2)c(O)c(C(C)(C)c2ccccc2)c1 | inconclusive: 30.9 µM [inhibitor] | –
4 | O=C(NC(=O)c1c(F)cccc1F)Nc1ccc(Oc2ccc(C(F)(F)F)cc2Cl)cc1F | – | inactive: -20.5%
5 | COC[C@@H](NC(C)=O)C(=O)NCc1ccccc1 | inconclusive: 27.5 µM [inhibitor, partial curve] | –
6 | N#CCCSCCC#N | inconclusive: 63.4 µM [inhibitor, partial curve] | –
7 | CCCCOCCOP(=O)(OCCOCCCC)OCCOCCCC | inconclusive: 63.4 µM [inhibitor, partial curve] and inconclusive: 35.6 µM [inhibitor, partial curve] | –
8 | Nc1c(Cl)c(Cl)nc(C(=O)O)c1Cl | inconclusive: 73.2 µM [inhibitor, partial curve, poor fit] | –
9 | Oc1ccc(Cc2ccc(O)cc2)cc1 | inconclusive: 40.2 µM [inhibitor, partial curve] | –
10 | CC(C)(c1ccc(OCC2CO2)cc1)c1ccc(OCC2CO2)cc1 (stereo unspecified) | inconclusive: 80.7 µM [inhibitor, single point] | –
11 | C=CCC1=C(C)C(OC(=O)C2C(C=C(C)C)C2(C)C)CC1=O (stereo unspecified) | active: 25.9 µM | –
12 | Cc1ccccc1[N+](=O)[O-] | inactive | –
13 | Brc1ccc(Oc2ccc(Br)cc2Br)c(Br)c1 | active: 12.6 µM | –
14 | O=C1c2ccccc2C(=O)C1C(=O)C(c1ccccc1)c1ccc(Cl)cc1 (stereo unspecified) | active: 20 µM | –
15 | CN(C)CCc1c[nH]c2ccccc12 | – | inactive: -20%
16 | CNP(=O)(OC)Oc1ccc(C(C)(C)C)cc1Cl (stereo unspecified) | active: 35.6 µM | –
17 | CC1(C)C(/C=C(\Cl)C(F)(F)F)C1C(=O)OC(C#N)c1cccc(Oc2ccccc2)c1 (stereo unspecified) | inconclusive: 36.2 µM [inhibitor, partial curve] | –
18 | CC1CCC(C(C)C)C(OC(=O)c2ccccc2N)C1 (stereo unspecified) | active: 12.4 µM | –

Row | SMILES | Potency | activity change, negative = inhibition
19 | Nc1ccccc1C(=O)OCCc1ccccc1 | active: 7.13 µM and active: 7.1 µM | –
20 | CC(C)(c1ccccc1)c1ccc(O)cc1 | inconclusive: 62.7 µM [inhibitor, partial curve] | –
21 | CC(C)(C)c1cc(O)ccc1O | inconclusive: 71 µM [inhibitor, partial curve] | –
22 | CC(C)(C)OO | inconclusive: 56.4 µM [inhibitor, partial curve, poor fit] | –
23 | CCO/N=C(\CC)C1=C(O)CC(c2c(C)cc(C)cc2C)CC1=O (stereo unspecified) | inconclusive: 54.3 µM [inhibitor] | –
24 | CCCCCCCCCCCCBr | inconclusive: 44.8 µM [inhibitor, partial curve] | –
25 | CCc1cccc(C)c1N(C(=O)CCl)[C@@H](C)COC | inconclusive: 39.9 µM [inhibitor, partial curve, poor fit] | –
26 | NNC(=O)c1ccccc1 | active: 32.6 µM | –
27 | O=C1C=CC(=O)C=C1 | active: 40.1 µM and inconclusive: 71 µM [inhibitor, partial curve, poor fit] | –
28 | OCCN(CCO)CCO | inconclusive: 44.8 µM [inhibitor, partial curve, poor fit] and inconclusive: 63.3 µM [inhibitor, partial curve, poor fit] | –
29 | OC(c1ccc(Cl)cc1)(c1ccc(Cl)cc1)c1cccnc1 | active: 35.6 µM | –
30 | CC1(C)CC(=O)CC(C)(C)N1[O] | – | inactive: -15.8%
31 | COCC(C)N(C(=O)CCl)c1c(C)csc1C (stereo unspecified) | inconclusive: 71 µM [inhibitor, partial curve, poor fit] | –
32 | CCCCCCCCCCCOC(=O)c1ccccc1C(=O)OCCCCCCCCCCC | inconclusive: 39.9 µM [inhibitor, partial curve] | –
33 | Nc1nc(N)nc(NC2CC2)n1 | inconclusive: 63.6 µM [inhibitor, partial curve, poor fit] and inconclusive: 63.3 µM [inhibitor, partial curve] | –
34 | CC(=O)Nc1ccc2c(c1)Cc1ccccc1-2 | active: 3.22 µM | –
35 | O=C(O)C(F)(F)C(F)(F)C(F)(F)C(F)(F)C(F)(F)C(F)(F)C(F)(F)F | inactive | –
36 | Cc1cc(-c2ccc(N)c(C)c2)ccc1N | active: 509 nM [middle of 4 runs] | –
